For at least one compound, name, drawing or mass did not settle the structure.
molecular target: [35S]-TBPS binding, rat brain cortical membranes; test: Steroid inhibition of TBPS binding ([35S]-TBPS radioligand displacement); conditions: 3 nM [35S]-TBPS, 5 μM GABA

Structure (SMILES) | IC50
COC[C@@]1(O)CC[C@@]2(C)[C@@H](CC[C@@H]3[C@@H]2CC[C@]2(C)[C@@H](C(=O)Cn4nnc5ccc(Cl)cc54)CC[C@@H]32)C1 [Compound 185] | < 10 nM
COC[C@@]1(O)CC[C@@]2(C)[C@@H](CC[C@@H]3[C@@H]2CC[C@]2(C)[C@@H](C(=O)Cn4ncc5ccc(Cl)cc54)CC[C@@H]32)C1 [Compound 186] | 10 to 50 nM
COC[C@@]1(O)CC[C@@]2(C)[C@@H](CC[C@@H]3[C@@H]2CC[C@]2(C)[C@@H](C(=O)Cn4ncc(C)n4)CC[C@@H]32)C1 [Compound 187] | 10 to 50 nM
COC[C@@]1(O)CC[C@@]2(C)[C@@H](CC[C@@H]3[C@@H]2CC[C@]2(C)[C@@H](C(=O)Cn4cnc(C)c4)CC[C@@H]32)C1 [Compound 188] | 50 to 100 nM
COC[C@@]1(O)CC[C@@]2(C)[C@@H](CC[C@@H]3[C@@H]2CC[C@]2(C)[C@@H](C(=O)Cn4cc(CO)cn4)CC[C@@H]32)C1 [Compound 189] | 100 to 500 nM
C[C@@]1(O)CC[C@@]2(C)[C@H](CC[C@@H]3[C@@H]2CC[C@]2(C)[C@@H](C(=O)Cn4cc(CO)cn4)CC[C@@H]32)C1 [Compound 190] | 100 to 500 nM
COC[C@@]1(O)CC[C@@]2(C)[C@@H](CC[C@@H]3[C@@H]2CC[C@]2(C)[C@@H](C(=O)Cn4cc5cc(Cl)ccc5n4)CC[C@@H]32)C1 [Compound 191] | < 10 nM
COC[C@@]1(O)CC[C@@]2(C)[C@@H](CC[C@@H]3[C@@H]2CC[C@]2(C)[C@@H](C(=O)Cn4nnnc4C)CC[C@@H]32)C1 [Compound 193] | 50 to 100 nM
COC[C@@]1(O)CC[C@@]2(C)[C@@H](CC[C@@H]3[C@@H]2CC[C@]2(C)[C@@H](C(=O)Cn4nnc(C)n4)CC[C@@H]32)C1 [Compound 194] | 10 to 50 nM
COC[C@@]1(O)CC[C@@]2(C)[C@@H](CC[C@@H]3[C@@H]2CC[C@]2(C)[C@@H](C(=O)Cn4ccnc4C)CC[C@@H]32)C1 [Compound 195] | 100 to 500 nM
C[C@@]1(O)CC[C@@]2(C)[C@@H](CC[C@H]3[C@@H]4CC[C@H](C(=O)Cn5cc(C#N)cn5)[C@@]4(C)CC(=O)[C@@H]32)C1 [Compound 196] | 100 to 500 nM
C[C@@]1(O)CC[C@@]2(C)[C@@H](CC[C@H]3[C@@H]4CC[C@H](C(=O)Cn5ccnn5)[C@@]4(C)CC(=O)[C@@H]32)C1 [Compound 197] | > 500 nM
C[C@@]1(O)CC[C@@]2(C)[C@@H](CC[C@H]3[C@@H]4CC[C@H](C(=O)Cn5nccn5)[C@@]4(C)CC(=O)[C@@H]32)C1 [Compound 198] | 100 to 500 nM
COC[C@@]1(O)CC[C@@]2(C)[C@@H](CC[C@@H]3[C@@H]2CC[C@]2(C)[C@@H](C(=O)Cn4cc5ccc(Cl)cc5n4)CC[C@@H]32)C1 [Compound 199] | 10 to 50 nM
COC[C@@]1(O)CC[C@@]2(C)[C@@H](CC[C@@H]3[C@@H]2CC[C@]2(C)[C@@H](C(=O)Cn4cnc(F)c4)CC[C@@H]32)C1 [Compound 200] | 50 to 100 nM
COC[C@@]1(O)CC[C@@]2(C)[C@@H](CC[C@@H]3[C@@H]2CC[C@]2(C)[C@@H](C(=O)Cn4cc(Cl)cn4)CC[C@@H]32)C1 [Compound 202] | 10 to 50 nM
C[C@@]1(O)CC[C@@]2(C)[C@@H](CC[C@@H]3[C@@H]2CC[C@]2(C)[C@@H](C(=O)Cn4cnc(F)c4)CC[C@@H]32)C1 [Compound 203] | 10 to 50 nM
CCOC(=O)c1cnn(CC(=O)[C@H]2CC[C@H]3[C@@H]4CC[C@@H]5C[C@](C)(O)CC[C@]5(C)[C@H]4CC[C@]23C)c1 [Compound 204] | < 10 nM
Cc1nnnn1CC(=O)[C@H]1CC[C@H]2[C@@H]3CC[C@H]4C[C@](C)(O)CC[C@]4(C)[C@H]3CC[C@]12C [Compound 205] | 100 to 500 nM
Cc1nnn(CC(=O)[C@H]2CC[C@H]3[C@@H]4CC[C@H]5C[C@](C)(O)CC[C@]5(C)[C@H]4CC[C@]23C)n1 [Compound 206] | 10 to 50 nM
C[C@@]1(O)CC[C@@]2(C)[C@H](CC[C@@H]3[C@@H]2CC[C@]2(C)[C@@H](C(=O)Cn4nccn4)CC[C@@H]32)C1 [Compound 207] | 10 to 50 nM
C[C@@]1(O)CC[C@@]2(C)[C@H](CC[C@@H]3[C@@H]2CC[C@]2(C)[C@@H](C(=O)Cn4ccnn4)CC[C@@H]32)C1 [Compound 208] | 50 to 100 nM
CCOC(=O)c1cnn(CC(=O)[C@H]2CC[C@H]3[C@@H]4CC[C@@H]5C[C@](C)(O)CC[C@]5(C)[C@H]4CC[C@]23C)n1 [Compound 209] | 10 to 50 nM
CCOC(=O)c1cn(CC(=O)[C@H]2CC[C@H]3[C@@H]4CC[C@@H]5C[C@](C)(O)CC[C@]5(C)[C@H]4CC[C@]23C)nn1 [Compound 210] | 50 to 100 nM
C[C@@]1(O)CC[C@@]2(C)[C@H](CC[C@@H]3[C@@H]2CC[C@]2(C)[C@@H](C(=O)Cn4ncc(C(=O)O)n4)CC[C@@H]32)C1 [Compound 211] | > 500 nM
C[C@@]1(O)CC[C@@]2(C)[C@H](CC[C@@H]3[C@@H]2CC[C@]2(C)[C@@H](C(=O)Cn4cc(C(=O)O)nn4)CC[C@@H]32)C1 [Compound 212] | > 500 nM
C[C@@]1(O)CC[C@@]2(C)[C@H](CC[C@@H]3[C@@H]2CC[C@]2(C)[C@@H](C(=O)Cn4cc(C(N)=O)nn4)CC[C@@H]32)C1 [Compound 213] | > 500 nM

Structure (SMILES) | IC50
C[C@@]1(O)CC[C@@]2(C)[C@H](CC[C@@H]3[C@@H]2CC[C@]2(C)[C@@H](C(=O)Cn4ncc(C(N)=O)n4)CC[C@@H]32)C1 [Compound 214] | 100 to 500 nM
C[C@@]1(O)CC[C@@]2(C)[C@H](CC[C@@H]3[C@@H]2CC[C@]2(C)[C@@H](C(=O)Cn4cc(C#N)nn4)CC[C@@H]32)C1 [Compound 215] | 100 to 500 nM
C[C@@]1(O)CC[C@@]2(C)[C@H](CC[C@@H]3[C@@H]2CC[C@]2(C)[C@@H](C(=O)Cn4ncc(C#N)n4)CC[C@@H]32)C1 [Compound 216] | 50 to 100 nM
C[C@@]1(O)CC[C@@]2(C)[C@H](CC[C@@H]3[C@@H]2CC[C@]2(C)[C@@H](C(=O)Cn4ncc(CO)n4)CC[C@@H]32)C1 [Compound 217] | 50 to 100 nM
C[C@@]1(O)CC[C@@]2(C)[C@H](CC[C@@H]3[C@@H]2CC[C@]2(C)[C@@H](C(=O)Cn4cc(CO)nn4)CC[C@@H]32)C1 [Compound 218] | 100 to 500 nM
C[C@@]1(O)CC[C@@]2(C)[C@@H](CC[C@@H]3[C@@H]2CC[C@]2(C)[C@@H](C(=O)Cn4cc5cc(F)ncc5n4)CC[C@@H]32)C1 [Compound 219] | 50 to 100 nM
C[C@@]1(O)CC[C@@]2(C)[C@@H](CC[C@@H]3[C@@H]2CC[C@]2(C)[C@@H](C(=O)Cn4ncc5cc(F)ncc54)CC[C@@H]32)C1 [Compound 220] | 50 to 100 nM
COC[C@@]1(O)CC[C@@]2(C)[C@@H](CC[C@@H]3[C@@H]2CC[C@]2(C)[C@@H](C(=O)Cn4cc5cc(F)ncc5n4)CC[C@@H]32)C1 [Compound 221] | 100 to 500 nM
COC[C@@]1(O)CC[C@@]2(C)[C@@H](CC[C@@H]3[C@@H]2CC[C@]2(C)[C@@H](C(=O)Cn4ncc5cc(F)ncc54)CC[C@@H]32)C1 [Compound 222] | 10 to 50 nM
CC(=O)Nc1cnn(CC(=O)[C@H]2CC[C@H]3[C@@H]4CC[C@@H]5C[C@](C)(O)CC[C@]5(C)[C@H]4CC[C@]23C)n1 [Compound 223] | 50 to 100 nM
COCCNC(=O)c1cnn(CC(=O)[C@H]2CC[C@H]3[C@@H]4CC[C@@H]5C[C@](C)(O)CC[C@]5(C)[C@H]4CC[C@]23C)n1 [Compound 224] | 10 to 50 nM
C[C@@]1(O)CC[C@@]2(C)[C@H](CC[C@@H]3[C@@H]2CC[C@]2(C)[C@@H](C(=O)Cn4ncc(C(=O)N5CCCC5)n4)CC[C@@H]32)C1 [Compound 225] | 100 to 500 nM
C[C@@]1(O)CC[C@@]2(C)[C@@H](CC[C@@H]3[C@@H]2CC[C@]2(C)[C@@H](C(=O)Cn4ncc(CO)n4)CC[C@@H]32)C1 [Compound 226] | 100 to 500 nM
C[C@@]1(O)CC[C@@]2(C)[C@@H](CC[C@@H]3[C@@H]2CC[C@]2(C)[C@@H](C(=O)Cn4cc(CO)nn4)CC[C@@H]32)C1 [Compound 227] | 100 to 500 nM
CNC(=O)c1cnn(CC(=O)[C@H]2CC[C@H]3[C@@H]4CC[C@@H]5C[C@](C)(O)CC[C@]5(C)[C@H]4CC[C@]23C)n1 [Compound 228] | 10 to 50 nM
CCNC(=O)c1cnn(CC(=O)[C@H]2CC[C@H]3[C@@H]4CC[C@@H]5C[C@](C)(O)CC[C@]5(C)[C@H]4CC[C@]23C)n1 [Compound 229] | 50 to 100 nM
CCCNC(=O)c1cnn(CC(=O)[C@H]2CC[C@H]3[C@@H]4CC[C@@H]5C[C@](C)(O)CC[C@]5(C)[C@H]4CC[C@]23C)n1 [Compound 230] | 10 to 50 nM
C[C@@]1(O)CC[C@@]2(C)[C@H](CC[C@@H]3[C@@H]2CC[C@]2(C)[C@@H](C(=O)Cn4ncc(C(=O)NC5CC5)n4)CC[C@@H]32)C1 [Compound 231] | 10 to 50 nM
C[C@@]1(O)CC[C@@]2(C)[C@H](CC[C@@H]3[C@@H]2CC[C@]2(C)[C@@H](C(=O)Cn4ncc(C(=O)Nc5ccccc5)n4)CC[C@@H]32)C1 [Compound 232] | 10 to 50 nM
C[C@@]1(O)CC[C@@]2(C)[C@@H](CC[C@@H]3[C@@H]2CC[C@]2(C)[C@@H](C(=O)Cn4nnc5c(F)cc(F)cc54)CC[C@@H]32)C1 [Compound 233] | 10 to 50 nM
C[C@@]1(O)CC[C@@]2(C)[C@@H](CC[C@@H]3[C@@H]2CC[C@]2(C)[C@@H](C(=O)Cn4nc5cc(F)cc(F)c5n4)CC[C@@H]32)C1 [Compound 234] | 10 to 50 nM
C[C@@]1(O)CC[C@@]2(C)[C@@H](CC[C@@H]3[C@@H]2CC[C@]2(C)[C@@H](C(=O)Cn4ncc5nccnc54)CC[C@@H]32)C1 [Compound 236] | 10 to 50 nM
C[C@@]1(O)CC[C@@]2(C)[C@@H](CC[C@@H]3[C@@H]2CC[C@]2(C)[C@@H](C(=O)Cn4cc5nccnc5n4)CC[C@@H]32)C1 [Compound 242] | 50 to 100 nM
C[C@@]1(O)CC[C@@]2(C)[C@@H](CC[C@@H]3[C@@H]2CC[C@]2(C)[C@@H](C(=O)Cn4nnc5cc(F)ccc54)CC[C@@H]32)C1 [Compound 244] | 10 to 50 nM
CSc1ccc2c(c1)nnn2CC(=O)[C@H]1CC[C@H]2[C@@H]3CC[C@H]4C[C@](C)(O)CC[C@]4(C)[C@H]3CC[C@]12C [Compound 247] | 10 to 50 nM
CSc1ccc2nn(CC(=O)[C@H]3CC[C@H]4[C@@H]5CC[C@H]6C[C@](C)(O)CC[C@]6(C)[C@H]5CC[C@]34C)nc2c1 [Compound 249] | < 10 nM
C[C@@]1(O)CC[C@@]2(C)[C@@H](CC[C@@H]3[C@@H]2CC[C@]2(C)[C@@H](C(=O)Cn4cc5ccc(Cl)cc5n4)CC[C@@H]32)C1 [Compound 250] | 10 to 50 nM
